Experimental data published in PubChem BioAssay AID360 (National Center for Advancing Translational Sciences (NCATS), 2006).
Among all 48,000 compounds or so, about 550 (1.1%) were called active. Inconclusive means that the source gave no clear call. Such entries were picked first, then a sample of the others. Cut-off read from the data, not from the text of the source: active = potency below about 15 µM; inconclusive = mostly about 16 µM to 33 µM; inactive = weaker than that. Potencies of inconclusive entries are doubtful fits and often do not repeat.

target: Lysosomal acid glucosylceramidase (Homo sapiens) (UniProt P04062); assay: Glucocerebrosidase; settings: purified enzyme, resorufin glucoside fluorescence (screen aimed at inhibitors), 20 min;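 note: the screen sought inhibitors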
Chain of UniProt P04062 (P04062 whole entry, looked up): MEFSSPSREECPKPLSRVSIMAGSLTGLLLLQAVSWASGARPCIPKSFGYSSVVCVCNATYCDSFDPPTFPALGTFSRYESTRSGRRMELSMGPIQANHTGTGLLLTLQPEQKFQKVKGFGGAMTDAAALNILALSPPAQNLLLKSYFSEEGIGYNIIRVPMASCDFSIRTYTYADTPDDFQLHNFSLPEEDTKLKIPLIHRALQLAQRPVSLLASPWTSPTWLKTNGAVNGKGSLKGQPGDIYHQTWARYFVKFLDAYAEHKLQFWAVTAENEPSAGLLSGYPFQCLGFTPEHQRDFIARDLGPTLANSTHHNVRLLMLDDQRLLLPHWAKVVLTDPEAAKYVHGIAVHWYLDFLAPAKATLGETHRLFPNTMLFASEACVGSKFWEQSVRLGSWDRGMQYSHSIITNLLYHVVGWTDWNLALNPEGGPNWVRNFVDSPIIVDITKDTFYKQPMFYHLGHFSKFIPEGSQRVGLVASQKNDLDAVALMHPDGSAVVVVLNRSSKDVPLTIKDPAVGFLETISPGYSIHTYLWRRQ
How it was run: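 Normal human glucocerebrosidase (0.2 nM final) was assayed with resorufin β-D-glucopyranoside (30 uM final) in 50mM citric acid/KH2PO4, 10mM sodium taurocholate, 0.01% tween-20, pH 5.9. Compounds were titrated; fluorescence (Ex 548, Em 600) read after 20 min at RT.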
Potency is the fitted concentration of half-maximal effect.

Potency, active:
Cc1ccc(C)c(CSc2nnc(-c3cccnc3)n2N)c1 4.18 µM, C=CCn1cnc2c(c1=O)c1nc3ccccc3nc1n2/N=C/c1ccccn1 8.41 µM, CC(=O)Nc1ccc(S(=O)(=O)Nc2cccc(-c3nc4cc(C)ccc4o3)c2)cc1 7.86 µM, CCCCC(=O)Nc1ccc(C(=O)NCCCn2ccnc2)cc1 5.11 µM, O=C(Nc1ccc(NC(=O)C2CCCCC2)cn1)c1ccco1 9.8 µM

Potency, inactive:
CC(C)C(c1nnnn1C(C)(C)C)N1CCN(c2cccc(Cl)c2)CC1 (configuration not stated) > 76.9 µM, Cn1c(SCC(=O)NCc2ccc3c(c2)OCO3)nnc1C1COc2ccccc2O1 (configuration not stated) > 76.9 µM, CCOCCCN(C(=O)Cn1nnc2ccccc21)C(C(=O)NCc1ccco1)c1ccncc1 (configuration not stated) > 76.9 µM, COc1ccc(N2CCN(c3oc(COc4ccccc4)nc3C#N)CC2)cc1 > 76.9 µM, COc1ccc(C)cc1-n1nnnc1SCc1cn2ccsc2n1 > 76.9 µM, Cn1c2ccccc2c2c(C(=O)NCCCN3CCCC3=O)cn(C3CCCCC3)c(=O)c21 > 76.9 µM, Cc1cc(NC(=O)c2ccccc2Oc2ccccc2)no1 > 76.9 µM, Cc1cc(O)c(/C=N/c2ccccn2)c(=O)o1 > 76.9 µM, Cc1cc(C)nc(N2CCCC(C(=O)NCCc3ccccc3F)C2)n1 (configuration not stated) > 76.9 µM, CCCCCn1c(N2CCOCC2)nc2c1c(=O)n(CC(N)=O)c(=O)n2C > 76.9 µM, COC(=O)c1nnn(-c2nonc2N)c1CN1CCc2ccccc21 > 76.9 µM, Cc1ccc(S(=O)(=O)N2CCC(C(=O)N[C@@H](C)C(=O)NCc3ccccc3)CC2)cc1 > 76.9 µM, Clc1ccc(OCc2nn3c(-c4ccco4)nnc3s2)cc1 > 76.9 µM, COc1ccc(N2CCN(C(=O)c3ccc(-n4nc(C)cc4C)cc3)CC2)cc1 > 76.9 µM, Cc1ccc(-c2ccc(CCC(=O)O)n2NC(=O)c2ccco2)cc1 > 76.9 µM, COc1ccc(N2CCN(CCNC(=O)CCN3C(=O)COc4ccccc43)CC2)cc1 > 76.9 µM, COc1ccc(C(c2nnnn2C2CCCC2)N2CCc3ccccc3C2)cc1OC (configuration not stated) > 76.9 µM, Oc1c(-c2cc(-c3ccco3)[nH]n2)ccc2ccccc12 > 76.9 µM, N#Cc1c(SCC(=O)Nc2nccs2)nc2c(c1-c1ccco1)CCCC2 > 76.9 µM, CC(=O)C1=C(O)C=C(c2ccco2)CC1c1ccco1 (configuration not stated) > 76.9 µM, O=C(NC1CCCC1)c1cnn2c(C(F)(F)F)cc(-c3ccco3)nc12, C=CCN(C(=O)Cn1nnc2ccccc21)C(C(=O)NCCOC)c1ccc(OC)cc1OC (configuration not stated) > 76.9 µM, CCOc1ccc(N2C(=O)CC(N3CCN(c4ccccc4F)CC3)C2=O)cc1 (configuration not stated) > 76.9 µM, Cc1ccccc1NC(=O)N1C2CCCC1CC(NC(=O)C1CC1)C2 (configuration not stated) > 76.9 µM

Potency, inconclusive:
Cc1noc(C)c1S(=O)(=O)Nc1ccc(C(=O)NC2CCCCC2C)cc1 (configuration not stated) 21 µM [decreasing], CCCCC(=O)Nc1ccc(NC(=O)c2cccnc2)cn1 16.6 µM [decreasing], O=C1c2ccccc2C(Nc2cccc(C(F)(F)F)c2)N1Cc1ccco1 (configuration not stated) 23.6 µM [decreasing], CCCC(=O)N1c2ccc(-c3csc(N)n3)cc2CC1C (configuration not stated) 28.2 µM [decreasing], Cc1ccc2[nH]c(=O)c(CN(Cc3ccc4c(c3)OCO4)Cc3nnnn3Cc3ccco3)cc2c1 17 µM [decreasing], O=C(Nc1ccc2oc(-c3ccccc3F)nc2c1)c1cncc(Br)c1 16 µM [decreasing], O=C(Nc1ccc(NC(=O)C2CC2)nc1)c1ccncc1 26.4 µM [decreasing], Cc1cc(-c2ccco2)n2c(nc3ccccc32)c1C#N 27.9 µM [decreasing], COc1ccc(N(CC(=O)Nc2cccc(C(=O)O)c2)S(=O)(=O)c2c(C)noc2C)cc1 30.4 µM [decreasing], Cc1cc(NC(=O)Cc2cccs2)no1 23.9 µM [decreasing], COc1ccc(C2CC(=O)c3cnc(N4CCN(Cc5ccccc5)CC4)nc3C2)cc1 (configuration not stated) 26.9 µM [decreasing], CCN1C(=S)SC(=O)C1=C1C=C(C)N(Cc2ccco2)C(C)=C1 19.1 µM [increasing], Cc1oc(-c2ccc(Cl)cc2)nc1CSCC(=O)NCCCN1CCOCC1 31.6 µM [decreasing], OCCN(CCO)CC(O)Cn1c2ccccc2c2ccccc21 (configuration not stated) 18.7 µM [decreasing], Cc1ccc2nc(-c3ccc(NC(=O)c4ccco4)cc3)[nH]c2c1 18 µM [decreasing], COc1ccc(CC(=O)Nc2cccc(-c3nnc(-c4ccccc4)o3)c2)cc1OC 18.1 µM [increasing], O=C(CN1C(=O)c2cccc3cccc1c23)Nc1ccccc1C(=O)NCc1ccco1 32.2 µM [decreasing], CN1CCC(N(C)C(=O)COc2ccccc2-c2ccccc2)CC1 25.1 µM [decreasing], Cc1nnc(NC(=O)C2CCCN(S(=O)(=O)Cc3ccccc3)C2)s1 (configuration not stated) 19.7 µM [decreasing], CCc1ccc(NC(=O)c2cc(C)on2)cc1 17 µM [decreasing], Cn1c(SCC(=O)NCc2ccc3c(c2)OCO3)nc2scc(-c3cccs3)c2c1=O 31 µM [decreasing], Cc1ccc(N2C(=O)c3ccc(C(=O)NCCN4CCOCC4)cc3C2=O)cc1 17.5 µM [decreasing], O=C(Nc1ccc(Cl)cc1F)c1ccc(COc2c(F)c(F)c(F)c(F)c2F)o1 19.9 µM [decreasing], CCCCOC(=O)CSc1nnc(-c2cc(OC)c(OC)c(OC)c2)o1 17.7 µM [increasing], O=C(CCCOc1ccccc1)Nc1ccncc1 19.4 µM [decreasing], CCC(=O)c1ccccc1OCCSc1nc(C)cc(=O)[nH]1 17.8 µM [decreasing], C=CCn1c(SCC(=O)NCCCC)nc2scc(-c3ccco3)c2c1=O 21.2 µM [decreasing], Cc1onc(-c2c(F)cccc2Cl)c1C(=O)Nc1nnc(C2CC2)s1 16.4 µM [decreasing], COc1cc(NC(=O)c2cc(-c3cccs3)on2)cc(OC)c1OC 16.5 µM [increasing], CCCCOc1ccc(NC2=NC3(CCCC3)N=C(N)N2)cc1 24.7 µM [decreasing], COC(=O)C1(C)NC(c2ccc(O)cc2)C2C(=O)N(c3ccc4c(c3)OCCO4)C(=O)C21 (configuration not stated) 19.5 µM [decreasing], Cc1ccc2c(c1)nnn2C1CCN(CC(=O)c2ccc(Cl)cc2)CC1 19.7 µM [decreasing], COc1cc(OC)c(NC(=O)c2ccco2)cc1Cl 25.9 µM [increasing], CC(=O)N1CCN(c2ccc(NC(=O)COc3ccc(Cl)cc3Cl)cc2)CC1 16.5 µM [decreasing], O=C1c2ccccc2NC(c2cccc(F)c2)N1Cc1ccco1 (configuration not stated) 30.3 µM [decreasing], CCN(CC)S(=O)(=O)c1ccc(C(=O)Nc2ccc3c(c2)OCCO3)cc1 26.2 µM [decreasing], CSCCC1NC2(C(=O)Nc3c2ccc(Cl)c3C)[C@@H]2C(=O)N(C3CCCC3)C(=O)[C@H]12 (some centres not stated) 25.8 µM [decreasing], COC(=O)c1cc2occc2n1CC(=O)Nc1cc(OC)cc(OC)c1 26.2 µM [decreasing], Cc1cccnc1Nc1nc(-c2ccc(O)cc2O)cs1 17.8 µM [decreasing], COc1ccc(OC)c(CN2CCN(C(=O)c3cccc4ccccc34)CC2)c1 25.1 µM [decreasing], O=C(NCCN1CCOCC1)c1csc2c1CCCC2 21.2 µM [decreasing], Cc1cccc(N2CCN(C(=O)CCn3c(=O)[nH]c4ccccc4c3=O)CC2)c1C 23.7 µM [decreasing], Cc1[nH]c(=O)[nH]c(=O)c1S(=O)(=O)N1CCCC(C(=O)NCCc2ccc(Cl)cc2)C1 (configuration not stated) 18.1 µM [decreasing], CN1CCN(S(=O)(=O)c2ccc(-c3ccc(Cl)cc3)cc2)CC1 18.7 µM [decreasing], Cc1sc2nc3c4ccccc4c(NCc4ccco4)nn3c(=O)c2c1C 25 µM [increasing], CCn1nnc(-c2ccccc2NC(=O)c2cc(OC)cc(OC)c2)n1 15.5 µM [increasing], COCCNC(=O)c1ccc(N2CCCCC2)c(NS(=O)(=O)c2ccc(C)cc2)c1 30.3 µM [decreasing], O=C(CN1CCOCC1)Nc1ccc(C2CCCCC2)cc1 28.3 µM [decreasing]
